Screen size: about 310,000 compounds; about 14,000 (4.5%) showed an effect of 50% or more. Effects have a minus sign here. Some of the results follow.
Target: human ether-à-go-go-related gene (hERG) potassium channel (human, UniProt Q12809)
Assay: primary screen, population patch clamp on CHO cells stably expressing hERG
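Also: peak tail current of the secondary pulse compared with the same well before compound.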

human ether-à-go-go-related gene (hERG) potassium channel, sequence (Q12809 whole entry, looked up): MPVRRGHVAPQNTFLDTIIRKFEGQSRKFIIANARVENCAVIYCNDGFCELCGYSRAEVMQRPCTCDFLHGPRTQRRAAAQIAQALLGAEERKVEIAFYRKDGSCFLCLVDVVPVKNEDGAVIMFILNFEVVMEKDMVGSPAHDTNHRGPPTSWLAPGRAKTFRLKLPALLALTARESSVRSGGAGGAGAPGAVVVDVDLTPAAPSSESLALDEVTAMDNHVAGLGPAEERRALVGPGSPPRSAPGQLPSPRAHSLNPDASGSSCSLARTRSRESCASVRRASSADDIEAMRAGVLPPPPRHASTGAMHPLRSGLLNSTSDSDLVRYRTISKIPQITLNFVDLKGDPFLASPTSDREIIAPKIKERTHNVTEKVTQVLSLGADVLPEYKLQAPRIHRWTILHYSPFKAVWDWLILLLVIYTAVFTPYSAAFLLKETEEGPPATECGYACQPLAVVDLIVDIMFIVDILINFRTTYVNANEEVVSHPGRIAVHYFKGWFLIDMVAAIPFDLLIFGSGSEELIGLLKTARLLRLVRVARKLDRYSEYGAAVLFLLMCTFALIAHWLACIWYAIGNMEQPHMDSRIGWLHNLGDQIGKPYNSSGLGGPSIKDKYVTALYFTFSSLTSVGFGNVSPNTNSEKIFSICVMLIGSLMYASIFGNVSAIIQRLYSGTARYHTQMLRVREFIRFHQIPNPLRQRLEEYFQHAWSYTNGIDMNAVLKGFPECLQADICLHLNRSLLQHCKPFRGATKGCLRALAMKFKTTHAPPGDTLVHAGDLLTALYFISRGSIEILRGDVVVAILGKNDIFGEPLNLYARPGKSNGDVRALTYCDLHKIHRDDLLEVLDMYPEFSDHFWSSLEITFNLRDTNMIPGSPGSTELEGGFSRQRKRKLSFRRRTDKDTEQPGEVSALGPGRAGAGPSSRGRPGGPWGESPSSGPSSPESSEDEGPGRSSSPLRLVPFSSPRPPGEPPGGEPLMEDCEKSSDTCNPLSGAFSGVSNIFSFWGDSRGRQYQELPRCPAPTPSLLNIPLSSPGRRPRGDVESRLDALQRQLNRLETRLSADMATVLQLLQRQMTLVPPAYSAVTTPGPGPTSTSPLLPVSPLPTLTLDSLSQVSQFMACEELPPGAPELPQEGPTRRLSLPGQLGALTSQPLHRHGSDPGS

Structure (SMILES)	hERG current change (%, negative = inhibition) at 10uM [%]
COc1ccc(CS(=O)(=O)CC2(O)CCN(C(=O)c3cccc(C(F)(F)F)c3)CC2)cc1	-6.92
c1ccc(C(c2c[nH]c3ccccc23)c2c[nH]c3ccccc23)nc1	-8.55
COc1ccc([N+](=O)[O-])cc1N(CC(O)CN(CC(C)C)CC(C)C)S(=O)(=O)c1ccc(C)cc1.Cl (centres unmarked)	-13.7
CCSC1=NCCN1S(=O)(=O)c1ccc(Cl)cc1	-20.1
COc1ccccc1NC(=S)N(Cc1cccnc1)Cc1ccco1	-33.6
Cc1noc(NS(=O)(=O)c2ccc(NC(=O)CSc3ncccn3)cc2)c1C	-1.05
CN(C)C(=O)c1c(-c2ccccc2)oc2ccc(O)cc12	-6.5
CCOC(=O)C1=C(COC(=O)CCOc2ccccc2)NC(=O)NC1C (centres unmarked)	-30.6
c1ccc(-c2nc(N3CCCCCC3)c3ccccc3n2)nc1	-77.5
COc1ccc(-n2cnnc2SCC(=O)NC2CCCc3ccccc32)cc1 (centres unmarked)	2.51
Cn1c(CC(=O)NNC(=O)c2ccccc2[N+](=O)[O-])nc2ccccc21	9.9
CCN1C(=NCC2CC2)N[C@@H](c2cccc(C(F)(F)F)c2)C(C(=O)OC)=C1C	-21.6
OC[C@@H](O)[C@@H](O[C@H]1O[C@H](CO)[C@@H](O)[C@H](O)[C@H]1O)[C@H](O)[C@@H](O)CO	16.4
CC[C@@]12C(=O)N(c3cccc(Br)c3)C(=O)N1[C@H](c1ccc(Cl)cc1)[C@@H]1C(=O)N(C3CCCCC3)C(=O)[C@@H]12	-3.71
COC(=O)c1ccc(C2SCC(=O)N2Cc2ccccc2)cc1 (centres unmarked)	-17.7
CC(=O)Nc1cn(-c2ccccc2)nc1-c1ccccc1	-19.3
O=C(Nc1nc2cc(Cl)ccc2s1)C1CCCN(S(=O)(=O)c2cccc3cccnc23)C1 (centres unmarked)	-0.0598
CC(C)(C)n1nc2c(c1NC(=O)Cc1ccc(Cl)cc1)CS(=O)(=O)C2	-0.182
Cn1c(SCC(=O)NC2CC2)nnc1-c1cccs1	-24.6
CCCOC(=O)c1ccc(NC(=O)COC)cc1	1.07
N/C(=N\N=C\c1cccs1)SC1CC(=O)N(c2ccc(Br)cc2)C1=O (centres unmarked)	15.3
CCN(CC)S(=O)(=O)c1cccc(C(=O)Nc2ccccc2C(=O)N2CCOCC2)c1	1.21
CC(C)(C)c1ccc(/C=C/C(=O)NC2=NCCS2)cc1	10.5
